Test results as given in the supplement of paper PMC10441789.
The list shows a part of the results. Antibody binding of pooled human sera (four to six donors per pool; dilution not stated) to peptides of the Trypanosoma cruzi antigen TSSA on microarrays. Quantile-normalised fluorescence in arbitrary units, mean of duplicate arrays; higher = more binding. No active / inactive call. The uninfected pools are read here as the healthy donors of the same country. The strongest signals lie near the top of the scale (about 60,000).

Assays:
Test in all cases: antibody binding signal (normalised fluorescence) (arbitrary fluorescence units); higher = stronger serum antibody binding to peptide
[1] = test system: pooled sera of chronic Chagas disease patients, Argentina
Method: (§1)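 Microarray of 15-residue peptides over residues 30-55 of Trypanosoma cruzi TSSAII, each with 1 to 10 substitutions at naturally variable positions, probed with one serum pool per country.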

[2] = test system: pooled sera of chronic Chagas disease patients, Bolivia
Method: as §1

[3] = test system: pooled sera of chronic Chagas disease patients, Brazil
Method: as §1

[4] = test system: pooled sera of chronic Chagas disease patients, Colombia
Method: as §1

[5] = test system: pooled sera of chronic Chagas disease patients, Mexico
Method: as §1

[6] = test system: pooled sera of chronic Chagas disease patients, USA
Method: as §1

[7] = test system: pooled sera of uninfected people, Argentina
Method: as §1

[8] = test system: pooled sera of uninfected people, Bolivia
Method: as §1

[9] = test system: pooled sera of uninfected people, Brazil
Method: as §1

[10] = test system: pooled sera of uninfected people, Colombia
Method: as §1

[11] = test system: pooled sera of uninfected people, Mexico
Method: as §1

[12] = test system: pooled sera of uninfected people, USA
Method: as §1

## TPPSGKDKKTAAGGT
[1]
  antibody binding signal: 1770
[2]
  antibody binding signal: 326
[3]
  antibody binding signal: 549
[4]
  antibody binding signal: 2360
[5]
  antibody binding signal: 38000
[6]
  antibody binding signal: 1750
[7]
  antibody binding signal: 117
[8]
  antibody binding signal: 289
[9]
  antibody binding signal: 521
[10]
  antibody binding signal: 168
[11]
  antibody binding signal: 86.7
[12]
  antibody binding signal: 109

## TEKKPATGEAPSQPG
[1]
  antibody binding signal: 50100
[2]
  antibody binding signal: 51700
[3]
  antibody binding signal: 52300
[4]
  antibody binding signal: 389
[5]
  antibody binding signal: 396
[6]
  antibody binding signal: 41200
[7]
  antibody binding signal: 928
[8]
  antibody binding signal: 677
[9]
  antibody binding signal: 491
[10]
  antibody binding signal: 249
[11]
  antibody binding signal: 270
[12]
  antibody binding signal: 517

## NKAATGEAPSQPGAS
[1]
  antibody binding signal: 17600
[2]
  antibody binding signal: 41600
[3]
  antibody binding signal: 45500
[4]
  antibody binding signal: 188
[5]
  antibody binding signal: 212
[6]
  antibody binding signal: 26100
[7]
  antibody binding signal: 580
[8]
  antibody binding signal: 895
[9]
  antibody binding signal: 422
[10]
  antibody binding signal: 434
[11]
  antibody binding signal: 270
[12]
  antibody binding signal: 984

## KPAAGGAPSQSGASS
[1]
  antibody binding signal: 237
[2]
  antibody binding signal: 251
[3]
  antibody binding signal: 517
[4]
  antibody binding signal: 1070
[5]
  antibody binding signal: 1130
[6]
  antibody binding signal: 325
[7]
  antibody binding signal: 306
[8]
  antibody binding signal: 188
[9]
  antibody binding signal: 124
[10]
  antibody binding signal: 105
[11]
  antibody binding signal: 348
[12]
  antibody binding signal: 207

## PSGTDNKTAAGGTPS
[1]
  antibody binding signal: 12500
[2]
  antibody binding signal: 4480
[3]
  antibody binding signal: 45900
[4]
  antibody binding signal: 5860
[5]
  antibody binding signal: 1920
[6]
  antibody binding signal: 1590
[7]
  antibody binding signal: 251
[8]
  antibody binding signal: 573
[9]
  antibody binding signal: 2660
[10]
  antibody binding signal: 349
[11]
  antibody binding signal: 2560
[12]
  antibody binding signal: 300

## PPSGTDKKAATGGTP
[1]
  antibody binding signal: 9460
[2]
  antibody binding signal: 1460
[3]
  antibody binding signal: 21200
[4]
  antibody binding signal: 3750
[5]
  antibody binding signal: 30100
[6]
  antibody binding signal: 2600
[7]
  antibody binding signal: 399
[8]
  antibody binding signal: 250
[9]
  antibody binding signal: 573
[10]
  antibody binding signal: 1030
[11]
  antibody binding signal: 1340
[12]
  antibody binding signal: 248

## PPSGTEKKPAAGGAP
[1]
  antibody binding signal: 40900
[2]
  antibody binding signal: 4460
[3]
  antibody binding signal: 35900
[4]
  antibody binding signal: 4070
[5]
  antibody binding signal: 8100
[6]
  antibody binding signal: 6340
[7]
  antibody binding signal: 1660
[8]
  antibody binding signal: 1090
[9]
  antibody binding signal: 718
[10]
  antibody binding signal: 378
[11]
  antibody binding signal: 334
[12]
  antibody binding signal: 1090

## PPSGKDNKTATGGTP
[1]
  antibody binding signal: 637
[2]
  antibody binding signal: 364
[3]
  antibody binding signal: 1960
[4]
  antibody binding signal: 2240
[5]
  antibody binding signal: 4500
[6]
  antibody binding signal: 2910
[7]
  antibody binding signal: 371
[8]
  antibody binding signal: 462
[9]
  antibody binding signal: 142
[10]
  antibody binding signal: 224
[11]
  antibody binding signal: 104
[12]
  antibody binding signal: 263

## GKDKKTAAGETPSQP
[1]
  antibody binding signal: 585
[2]
  antibody binding signal: 1090
[3]
  antibody binding signal: 16700
[4]
  antibody binding signal: 1040
[5]
  antibody binding signal: 856
[6]
  antibody binding signal: 1230
[7]
  antibody binding signal: 126
[8]
  antibody binding signal: 120
[9]
  antibody binding signal: 100
[10]
  antibody binding signal: 284
[11]
  antibody binding signal: 100
[12]
  antibody binding signal: 103

## KTATGETPSPPGASS
[1]
  antibody binding signal: 427
[2]
  antibody binding signal: 529
[3]
  antibody binding signal: 1970
[4]
  antibody binding signal: 203
[5]
  antibody binding signal: 281
[6]
  antibody binding signal: 4890
[7]
  antibody binding signal: 204
[8]
  antibody binding signal: 252
[9]
  antibody binding signal: 238
[10]
  antibody binding signal: 129
[11]
  antibody binding signal: 147
[12]
  antibody binding signal: 457

## GKDKKPAAGEAPSPS
[1]
  antibody binding signal: 740
[2]
  antibody binding signal: 223
[3]
  antibody binding signal: 3110
[4]
  antibody binding signal: 1180
[5]
  antibody binding signal: 1380
[6]
  antibody binding signal: 10400
[7]
  antibody binding signal: 135
[8]
  antibody binding signal: 80.8
[9]
  antibody binding signal: 113
[10]
  antibody binding signal: 91.5
[11]
  antibody binding signal: 73.7
[12]
  antibody binding signal: 81.3

## KDNKPATGGTPSPSG
[1]
  antibody binding signal: 443
[2]
  antibody binding signal: 241
[3]
  antibody binding signal: 356
[4]
  antibody binding signal: 231
[5]
  antibody binding signal: 400
[6]
  antibody binding signal: 397
[7]
  antibody binding signal: 275
[8]
  antibody binding signal: 513
[9]
  antibody binding signal: 233
[10]
  antibody binding signal: 206
[11]
  antibody binding signal: 182
[12]
  antibody binding signal: 144
